# Measured values from the supplement of paper PMC8728848.
# This is one part of the list.
# Tests used:
# Assay in all cases: glycan array binding signal (z-score within array); higher = stronger binding
# Settings in all cases: glycan notation: IUPAC condensed, linker removed
# [1] = target: Fuc(a1-2)[GalNAc(a1-3)]Gal(b1-3)GalNAc(b1-3)Gal(a1-4)Gal(b1-4)Glc
# Procedure, shortened: (§1)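 The binding signal is a Z-score computed within each array. Data were drawn from 3228 arrays in the Consortium for Functional Glycomics database, restricted to those with a known protein sequence. Scores were averaged over arrays of the same protein sequence at different concentrations or buffers, and over linkers, and negative values can be taken as non-binding.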
# [2] = target: Fuc(a1-2)[GalNAc(a1-3)]Gal(b1-3)GlcNAc
# Procedure, shortened: as §1
# [3] = target: Fuc(a1-2)[GalNAc(a1-3)]Gal(b1-3)GlcNAc(b1-2)Man(a1-3)[Fuc(a1-2)[GalNAc(a1-3)]Gal(b1-3)GlcNAc(b1-2)Man(a1-6)]Man(b1-4)GlcNAc(b1-4)GlcNAc
# Procedure, shortened: as §1
# [4] = target: Fuc(a1-2)[GalNAc(a1-3)]Gal(b1-3)GlcNAc(b1-2)Man(a1-3)[Fuc(a1-2)[GalNAc(a1-3)]Gal(b1-3)GlcNAc(b1-2)Man(a1-6)]Man(b1-4)GlcNAc(b1-4)[Fuc(a1-6)]GlcNAc
# Procedure, shortened: as §1
# [5] = target: Fuc(a1-2)[GalNAc(a1-3)]Gal(b1-3)GlcNAc(b1-3)GalNAc
# Procedure, shortened: as §1
# [6] = target: Fuc(a1-2)[GalNAc(a1-3)]Gal(b1-3)GlcNAc(b1-6)GalNAc
# Procedure, shortened: as §1
# [7] = target: Fuc(a1-2)[GalNAc(a1-3)]Gal(b1-4)Glc
# Procedure, shortened: as §1
# [8] = target: Fuc(a1-2)[GalNAc(a1-3)]Gal(b1-4)GlcNAc
# Procedure, shortened: as §1
# [9] = target: Fuc(a1-2)[GalNAc(a1-3)]Gal(b1-4)GlcNAc(b1-2)Man
# Procedure, shortened: as §1
# [10] = target: Fuc(a1-2)[GalNAc(a1-3)]Gal(b1-4)GlcNAc(b1-2)Man(a1-3)[Fuc(a1-2)[GalNAc(a1-3)]Gal(b1-4)GlcNAc(b1-2)Man(a1-6)]Man(b1-4)GlcNAc(b1-4)GlcNAc
# Procedure, shortened: as §1
# [11] = target: Fuc(a1-2)[GalNAc(a1-3)]Gal(b1-4)GlcNAc(b1-2)Man(a1-3)[Fuc(a1-2)[GalNAc(a1-3)]Gal(b1-4)GlcNAc(b1-2)Man(a1-6)]Man(b1-4)GlcNAc(b1-4)[Fuc(a1-6)]GlcNAc
# Procedure, shortened: as §1
# [12] = target: Fuc(a1-2)[GalNAc(a1-3)]Gal(b1-4)GlcNAc(b1-3)Gal(b1-4)GlcNAc
# Procedure, shortened: as §1
# [13] = target: Fuc(a1-2)[GalNAc(a1-3)]Gal(b1-4)GlcNAc(b1-3)Gal(b1-4)GlcNAc(b1-3)Gal(b1-4)GlcNAc
# Procedure, shortened: as §1
# [14] = target: Fuc(a1-2)[GalNAc(a1-3)]Gal(b1-4)GlcNAc(b1-3)GalNAc
# Procedure, shortened: as §1
# [15] = target: Fuc(a1-2)[GalNAc(a1-3)]Gal(b1-4)GlcNAc(b1-3)[Fuc(a1-2)[GalNAc(a1-3)]Gal(b1-4)GlcNAc(b1-6)]GalNAc
# Procedure, shortened: as §1
# [16] = target: Fuc(a1-2)[GalNAc(a1-3)]Gal(b1-4)GlcNAc(b1-6)GalNAc
# Procedure, shortened: as §1
# [17] = target: Fuc(a1-2)[GalNAc(a1-3)]Gal(b1-4)[Fuc(a1-3)]GlcNAc
# Procedure, shortened: as §1
# [18] = target: Fuc(a1-2)[GalNAc(a1-3)]Gal(b1-4)[Fuc(a1-3)]GlcNAc(b1-3)GalNAc
# Procedure, shortened: as §1
# [19] = target: Fuc(a1-2)[GalNAc(a1-4)]Gal(b1-4)GlcNAc
# Procedure, shortened: as §1
# [20] = target: Fuc(a1-2)[GalNAc(b1-3)]Gal
# Procedure, shortened: as §1
# [21] = target: Fuc(a1-3)GlcNAc
# Procedure, shortened: as §1
# [22] = target: Fuc(a1-3)[Gal(b1-4)]Glc6S
# Procedure, shortened: as §1
# [23] = target: Fuc(a1-3)[Gal(b1-4)]GlcNAc
# Procedure, shortened: as §1
# [24] = target: Fuc(a1-3)[Gal(b1-4)]GlcNAc(b1-2)Man
# Procedure, shortened: as §1
# [25] = target: Fuc(a1-3)[Gal(b1-4)]GlcNAc(b1-2)Man(a1-3)[Fuc(a1-3)[Gal(b1-4)]GlcNAc(b1-2)Man(a1-6)]Man(b1-4)GlcNAc(b1-4)GlcNAc
# Procedure, shortened: as §1
# [26] = target: Fuc(a1-3)[Gal(b1-4)]GlcNAc(b1-2)Man(a1-3)[Fuc(a1-3)[Gal(b1-4)]GlcNAc(b1-2)Man(a1-6)]Man(b1-4)GlcNAc(b1-4)[Fuc(a1-6)]GlcNAc
# Procedure, shortened: as §1
# [27] = target: Fuc(a1-3)[Gal(b1-4)]GlcNAc(b1-3)Gal(b1-3)[Fuc(a1-4)]GlcNAc
# Procedure, shortened: as §1
# [28] = target: Fuc(a1-3)[Gal(b1-4)]GlcNAc(b1-3)Gal(b1-4)[Fuc(a1-3)]GlcNAc
# Procedure, shortened: as §1
# [29] = target: Fuc(a1-3)[Gal(b1-4)]GlcNAc(b1-3)Gal(b1-4)[Fuc(a1-3)]GlcNAc(b1-3)Gal(b1-4)[Fuc(a1-3)]GlcNAc
# Procedure, shortened: as §1
# [30] = target: Fuc(a1-3)[Gal(b1-4)]GlcNAc(b1-3)GalNAc
# Procedure, shortened: as §1
# [31] = target: Fuc(a1-3)[Gal(b1-4)]GlcNAc(b1-4)Gal(b1-4)[Fuc(a1-3)]GlcNAc
# Procedure, shortened: as §1
# [32] = target: Fuc(a1-3)[Gal(b1-4)]GlcNAc(b1-4)Gal(b1-4)[Fuc(a1-3)]GlcNAc(b1-4)Gal(b1-4)[Fuc(a1-3)]GlcNAc
# Procedure, shortened: as §1
# [33] = target: Fuc(a1-3)[Gal(b1-4)]GlcNAc(b1-6)GalNAc
# Procedure, shortened: as §1
# [34] = target: Fuc(a1-3)[Gal(b1-4)]GlcNAc(b1-6)[Gal(b1-3)GlcNAc(b1-3)]Gal(b1-4)Glc
# Procedure, shortened: as §1
# [35] = target: Fuc(a1-3)[Gal(b1-4)]GlcNAc6S
# Procedure, shortened: as §1
# [36] = target: Fuc(a1-3)[Gal3S(b1-4)]Glc
# Procedure, shortened: as §1
# [37] = target: Fuc(a1-3)[Gal3S(b1-4)]GlcNAc
# Procedure, shortened: as §1
# [38] = target: Fuc(a1-3)[Gal3S(b1-4)]GlcNAc6S
# Procedure, shortened: as §1
# [39] = target: Fuc(a1-3)[GalNAc(b1-4)]GlcNAc
# Procedure, shortened: as §1
# [40] = target: Fuc(a1-3)[GalNAc(b1-4)]GlcNAc6S
# Procedure, shortened: as §1
# [41] = target: Fuc(a1-4)GlcNAc
# Procedure, shortened: as §1
# [42] = target: Fuc(b1-3)GlcNAc
# Procedure, shortened: as §1
# [43] = target: Gal(a1-2)Gal
# Procedure, shortened: as §1
# [44] = target: Gal(a1-3)Gal
# Procedure, shortened: as §1
# [45] = target: Gal(a1-3)Gal(b1-3)GlcNAc
# Procedure, shortened: as §1
binder,measurement,setting,value
"rCNL (Clitocybe nebularis), B2ZRS9 (protein) SITPGTYNITNVAYTNRLIDLTGSNPAENTLIIGHHLNKTPSGYGNQQWTLVQLPHTTIYTMQAVNPQSYVRVRDDNLVDGAALVGSQQPTPVSIESAGNSGQFRIKIPNLGLALTLPSDANSTPIVLGEVDETSTNQLWAFESVSAV",glycan array binding signal (z-score),[1],3.06
same,glycan array binding signal (z-score),[2],2.3
same,glycan array binding signal (z-score),[3],2.65
same,glycan array binding signal (z-score),[4],-0.151
same,glycan array binding signal (z-score),[5],1.16
same,glycan array binding signal (z-score),[6],1.69
same,glycan array binding signal (z-score),[7],2.49
same,glycan array binding signal (z-score),[8],3.08
same,glycan array binding signal (z-score),[9],3.12
same,glycan array binding signal (z-score),[10],4
same,glycan array binding signal (z-score),[11],1.23
same,glycan array binding signal (z-score),[12],3.46
same,glycan array binding signal (z-score),[13],3.25
same,glycan array binding signal (z-score),[14],0.992
same,glycan array binding signal (z-score),[15],2.18
same,glycan array binding signal (z-score),[16],2.35
same,glycan array binding signal (z-score),[17],1.32
same,glycan array binding signal (z-score),[18],-0.214
same,glycan array binding signal (z-score),[19],1.89
same,glycan array binding signal (z-score),[20],-0.196
same,glycan array binding signal (z-score),[21],-0.311
same,glycan array binding signal (z-score),[22],-0.295
same,glycan array binding signal (z-score),[23],-0.299
same,glycan array binding signal (z-score),[24],-0.224
same,glycan array binding signal (z-score),[25],-0.211
same,glycan array binding signal (z-score),[26],-0.218
same,glycan array binding signal (z-score),[27],-0.288
same,glycan array binding signal (z-score),[28],-0.216
same,glycan array binding signal (z-score),[29],-0.222
same,glycan array binding signal (z-score),[30],-0.278
same,glycan array binding signal (z-score),[31],-0.336
same,glycan array binding signal (z-score),[32],-0.359
same,glycan array binding signal (z-score),[33],-0.213
same,glycan array binding signal (z-score),[34],-0.294
same,glycan array binding signal (z-score),[35],-0.178
same,glycan array binding signal (z-score),[36],-0.218
same,glycan array binding signal (z-score),[37],-0.268
same,glycan array binding signal (z-score),[38],-0.288
same,glycan array binding signal (z-score),[39],-0.279
same,glycan array binding signal (z-score),[40],-0.207
same,glycan array binding signal (z-score),[41],-0.301
same,glycan array binding signal (z-score),[42],-0.297
same,glycan array binding signal (z-score),[43],-0.303
same,glycan array binding signal (z-score),[44],-0.297
same,glycan array binding signal (z-score),[45],-0.184
